In PMC10290082, “Tau protein binds to the P53 E3 ubiquitin ligase MDM2” (Scientific Reports, 2023):

Target: T1, recombinant human MDM2 (human)
T1 construct: E3 ubiquitin-protein ligase MDM2, human; source: bought: Biotechne ([…]-050)
Test: SPR; Tau variants immobilised on a CM5 chip by amine coupling; five twofold increasing concentrations of MDM2 from 37.5 nM, single-cycle kinetics; 25 °C; 10 mM HEPES pH 7.4, 150 mM NaCl, 3 mM EDTA, 0.005% Tween-20; Biacore 8K
Settings: both partners purified

Kd: 10.6 nM
B1: recombinant human Tau_(2N4R) protein Pro301Leu (natural protein)
chain: not shown
notes: microtubule-associated protein Tau, human, 2N4R isoform with the autosomal dominant FTLD-Tau mutation P301L; numbers count on: the 2N4R isoform; also called Tau_(P301L); FTLD-Tau variant P301L; source: E. coli, purified recombinant (provided by Prof. Luca Colnaghi)
